# Results from PubChem BioAssay AID1745853 (National Center for Advancing Translational Sciences (NCATS), 2022).
# This is one part of the list. The main result of the screen is listed elsewhere. These columns were measured beside it and carry no call.
# What was measured:
# Assay in all cases: Primary Screen for Target Class Profiling of Small Molecule Inhibitors of Methyltransferases
# [1] = target: Glycine N-methyltransferase (Homo sapiens) (UniProt Q14749); details: purified enzyme, MTase-Glo SAH luminescence; measured here: GNMT inhibition; at 40 µM; stronger effect = lower value
# In short: (§1)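 Each enzyme was reacted with SAM and its substrate, with compounds tested once at 40 uM; SAH formed was read by MTase-Glo luminescence.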
# [2] = target: Guanidinoacetate N-methyltransferase (Homo sapiens) (UniProt Q14353); details: purified enzyme, MTase-Glo SAH luminescence; measured here: GAMT inhibition; at 40 µM; stronger effect = lower value
# In short: as §1
# [3] = target: Histamine N-methyltransferase (Homo sapiens) (UniProt P50135); details: purified enzyme, MTase-Glo SAH luminescence; measured here: HNMT inhibition; at 40 µM; stronger effect = lower value
# In short: as §1
# [4] = target: Nicotinamide N-methyltransferase (Homo sapiens) (UniProt P40261); details: purified enzyme, MTase-Glo SAH luminescence; measured here: NNMT inhibition; at 40 µM; stronger effect = lower value
# In short: as §1
# [5] = target: Phenylethanolamine N-methyltransferase (Homo sapiens) (UniProt P11086); details: purified enzyme, MTase-Glo SAH luminescence; measured here: PNMT inhibition; at 40 µM; stronger effect = lower value
# In short: as §1
# % is set by controls: 0 for no effect and ±100 for the full control effect.
Structure (SMILES),"activity change, negative = inhibition [1]","activity change, negative = inhibition [2]","activity change, negative = inhibition [3]","activity change, negative = inhibition [4]","activity change, negative = inhibition [5]"
Cc1noc2c(Nc3ccc(C(N)=O)cc3)cc(-c3ccsc3)nc12,-4.05%,-3.69%,-1.51%,-11.2%,-5.04%
OC1COC(OCC2OC(OCCc3ccccc3)C(O)C(O)C2O)C(O)C1O (stereo not drawn),0%,6.19%,8.53%,-5.42%,2.92%
CC1(C(=O)NC2CCCCCCC2)Cn2c(cc3sccc32)C(=O)N1C1CCCC1 (stereo not drawn),1.99%,1.07%,3.86%,2.64%,-0.004%
COc1ccccc1CNC(=O)c1ccc2c(=O)nc3c(-c4ccccc4)n[nH]n3c2c1,-5.06%,2.74%,4.14%,3.42%,-1.81%
CCCCCNc1nc2c(-c3ccc(C)cc3)nnn2c2ccccc12,-1.59%,0.163%,6.46%,-0.502%,0.428%
CSc1ccc(CNC(=O)Cn2ccc3cc(S(=O)(=O)N4CCC(C)CC4)ccc32)cc1,7.96%,0.149%,5.56%,1.65%,0.676%
CC(=O)OC1C=C(C(=O)O)C2(CO)CCC(C)C(C)(CCc3ccoc3)C2C1 (stereo not drawn),0.305%,7.12%,9.15%,-9.68%,6.02%
CCOc1ccccc1NC(=O)N1CCn2cccc2C1C (stereo not drawn),-15.9%,-0.204%,-15.6%,-23.8%,-14.9%
CN1C(=O)c2cc(C(=O)NC3CCCc4ccccc43)nn2CC1(C)C(=O)NC1CCCCCC1 (stereo not drawn),5.45%,0%,5.64%,-1.55%,3.56%
Cc1ccc(CNC(=O)N2CCn3c(C)ccc3C2C(C)C)cc1 (stereo not drawn),5.51%,0%,-2.93%,-6.09%,-3.33%
COCC[C@]1(O)CCN(C(=O)Nc2ccc(F)c(C(F)(F)F)c2)C[C@H]1C,-0.796%,-6.48%,-2.34%,-3.69%,-3.87%
C1CCC[C@H]2CCCN3CC[C@H](CCCCCC[C@@H]4CCCN5CC[C@H](CC1)O[C@H]45)O[C@H]23,,-4%,,-8.18%,3.74%
CC(C)=CCn1c(-c2cc(C)oc2C)cn2cc(C(=O)N(C)CC(C)C)nc2c1=O,-12.2%,-0.59%,-3.91%,-14%,-4.8%
CCc1cc2c(cc3n2CC(C(=O)NC2CCCCC2)(c2ccccc2)N(Cc2ccccc2)C3=O)s1 (stereo not drawn),1.41%,-1.38%,5.33%,-4.73%,-3.82%
O=C(C[C@@H]1O[C@H](CNC(=O)Nc2ccccc2)[C@@H](O)[C@H]1O)NC1CC1,-1.17%,-1.2%,0.236%,-5.29%,-3.03%
COc1ccc(N(C)C(=O)c2c(C)oc3c2CN(Cc2ccc(F)cc2)CC3)cc1,-2.72%,-5.6%,-0.998%,1.1%,0.48%
Cc1ccc(C(=O)Cn2nc3n(CCC(C)C)c(=O)c4ccc(C(=O)NC(C)C)cc4n3c2=O)cc1,7.3%,0%,3.62%,3.27%,3.93%
Cc1ccc(CCN2C(=O)CSc3c(c4ccccc4n3C)C2C(=O)NCc2ccc(F)cc2)cc1 (stereo not drawn),-5.88%,2.64%,2.4%,-3.69%,0.652%
O=C(c1ccnnc1)N1CCC2(CCN(Cc3ccccn3)CC2)C(CO)C1 (stereo not drawn),-7.01%,-7.54%,-4.23%,-10.3%,-11.1%
Fc1ccc(-c2nc(C3CCNCC3)sc2-c2ccnc(NC3CC3)n2)cc1,-1.48%,10.1%,-4.46%,-44.4%,1.17%

Structure (SMILES),"activity change, negative = inhibition [1]","activity change, negative = inhibition [2]","activity change, negative = inhibition [3]","activity change, negative = inhibition [4]","activity change, negative = inhibition [5]"
Oc1ccccc1-c1cc(-c2ccccc2F)[nH]n1,-0.217%,7.1%,8.08%,-8.99%,4.73%
COc1cc2ncnc(Nc3ccc(O)c(Br)c3)c2cc1OC,-24%,-3.34%,-25%,-22%,-19%
CN1CC[C@H]2CN(C(=O)c3ccccc3-n3cccn3)C[C@@]2(C(=O)O)C1,-7.77%,-7.68%,-2.91%,-10.5%,1.87%
COc1ccc(CCN2C(=O)c3cc4ccccc4n3CC2(C)C(=O)NCc2ccccc2)c(OC)c1 (stereo not drawn),5.73%,3.97%,9.55%,10.1%,1.92%
Cc1nc(C)c(C(=O)NCCc2ncc(C)n2C2CC2)s1,-4.32%,-3.61%,-4.8%,-6.14%,0.731%
O=C1NCCCCCN(Cc2cn[nH]c2-c2ccc(F)cc2)[C@H]2CCC[C@@H]12,-12.9%,-5.15%,-7.72%,-16.6%,-10.4%
CC1(C(=O)NC2CCCC2)Cn2c(cc3sccc32)C(=O)N1Cc1cccs1 (stereo not drawn),-2.15%,-1.01%,-1.07%,-13.8%,-1.22%
COc1ccc(NS(=O)(=O)c2cc3c(cc2C)n(C)c(=O)n3C)cc1,11.1%,0%,11.3%,2.91%,6.66%
COc1cc(-c2cc(-c3cccc(O)c3)cnc2N)cc(OC)c1OC,-5.41%,2.04%,-2.92%,-15.2%,1.17%
CCCn1c(=O)c2cc(F)ccc2n2c(SCc3ccccc3C)nnc12,-21.4%,0.109%,4.72%,-2.75%,2.36%
O=C1c2cc3sccc3n2CC(C(=O)NC2CCCCCCC2)(c2ccccc2)N1Cc1ccccc1 (stereo not drawn),-1.24%,3.29%,-1.88%,-0.209%,-4.39%
CCc1cc2c(cc3n2CC(C)(C(=O)NC2CCC(C)CC2)N(c2cc(C)ccc2C)C3=O)s1 (stereo not drawn),2.49%,1.07%,2.1%,4.17%,0.229%
CCCn1c(=O)c2ccccc2n2c(=O)n(CC(=O)NC3CCCCC3)nc12,1%,0%,5.08%,-6.18%,0.941%
CN(C)Cc1nnc(C2CC(NC(=O)Cc3noc4ccccc34)C2)n1C (stereo not drawn),-4.7%,-7.67%,-2.65%,-12.7%,7.8%
C[C@H]1/C=C/C=C/C=C/C=C/C=C/[C@@H](O)[C@H](C(=O)O)[C@H](O)C[C@H](O)CCC[C@H](O)C[C@H](O)C[C@H](O)[C@@H](C)C(=O)O[C@@H]1C,0%,7.69%,12.6%,-4.59%,5.71%
Cc1ccc(CNC(=O)C2(C)Cn3nc(C(=O)NCCCN4CCCCC4)cc3C(=O)N2C)cc1 (stereo not drawn),6.93%,0.748%,-18.9%,4.97%,5.22%
COc1ncccc1-c1cc2c(nc1OC)nc(CCc1ccccc1)n2C,-21.5%,-6.53%,-6.77%,-27.6%,-11.8%
COc1ccc(CNC(=O)C[C@@H]2C[C@H]3O[C@H](CNC4CCNCC4)[C@@H](O)[C@H]3O2)cc1,-5.72%,-8.4%,-5.55%,-10%,-4.88%
CC(CN1C(=O)c2cc3occc3n2CC1(C)C(=O)NC1CCCCCCC1)c1ccccc1 (stereo not drawn),0.752%,0%,3.12%,1.23%,-15.1%
Cc1cc(C)c(S(=O)(=O)NCCc2n[nH]c(Cc3ccc(F)cc3)n2)cc1C,15.9%,0%,8.87%,-1.03%,6.82%

Structure (SMILES),"activity change, negative = inhibition [1]","activity change, negative = inhibition [2]","activity change, negative = inhibition [3]","activity change, negative = inhibition [4]","activity change, negative = inhibition [5]"
CN(C)Cc1ccc(-c2cnn3c(-c4cccc(NC(=O)c5cccc(C(F)(F)F)c5)c4)ccnc23)cc1,1.66%,16.9%,-45.6%,-9.78%,4.03%
COc1cccc(-c2noc(CCCc3nc(C4CCOC4)no3)n2)c1 (stereo not drawn),-4.91%,-10.1%,-1.02%,-17.3%,-3.89%
CC1=C(C)C(=O)OC(C(C)C2CCC3C4C5OC5C5(O)CC(OC6OC(CO)C(OC7OC(C)C(O)C(O)C7O)C(O)C6O)CC(O)C5(C)C4CCC23C)C1 (stereo not drawn),0.497%,-3.08%,5.6%,-15.2%,4.21%
CN1C(=O)c2cc(C(=O)NCc3cccs3)nn2CC1(C)C(=O)NCc1ccc(F)cc1 (stereo not drawn),3.97%,4.88%,-1.07%,2.64%,0.777%
COc1ccc(C2=NOC3(CCCN([S+](=O)([O-])c4cccc(C(F)(F)F)c4)C3)C2)cc1 (stereo not drawn),-2.35%,-1.27%,0.008%,-1.38%,-4.29%
CC[C@@H]1C(=O)O[C@]23C=C[C@@H]4C(C(=O)OC)=CO[C@H](O[C@@H]12)[C@@H]43,-6.32%,-8.76%,1.68%,-18.3%,-11.2%
O=C(Nc1ccc(=O)n2c1[C@@H]1C[C@@H](CN(C(=O)Nc3ccc(F)cc3)C1)C2)c1ccc2c(c1)OCO2,-1.47%,-0.951%,0.523%,-0.135%,0.905%
N=C(N)c1ccc(OCCCCCOc2ccc(C(=N)N)cc2)cc1 (tested in a mixture with another compound),-9.66%,5.57%,-92.3%,-11.2%,-2.38%
CCn1c(=O)n(CC)c2cc(S(=O)(=O)N3CCN(c4ccccc4OC)CC3)ccc21,11.9%,2.6%,11.4%,5.4%,9.41%
CCn1ccc(C(=O)N2CCC(C3CCN(C(C)=O)CC3)C2)n1 (stereo not drawn),-2.89%,-3.72%,0.874%,0.172%,1.03%
O=C1NCCOCCCN(S(=O)(=O)c2ccccc2)[C@H]2CCCC[C@@H]12,-1.26%,-2.22%,-0.533%,-3.46%,1.69%
O=C(c1sccc1Cl)N1CCn2nc(C(O)c3ccccc3)cc2C1 (stereo not drawn),-4.97%,-2.98%,-1.61%,-7.35%,-20.3%
Cc1cnc(C)c(-c2cc(O)c3c(c2)CNCCO3)n1,-4.78%,-1.05%,1.55%,-1.55%,-11.6%
CCCN1C(=O)c2c(C(=O)NCc3ccc(OCC)cc3)ncn2CC1(C)C(=O)NCc1ccc(C)cc1 (stereo not drawn),1.6%,0%,6.37%,5.81%,7.49%
O=C(NC1CC1)c1ccc2c(=O)nc3c(-c4ccccc4)n[nH]n3c2c1,-1.23%,6.26%,-1.55%,3.86%,0.46%
Cc1cccc(NC(=O)CN2CCC(c3ccccn3)CC2)c1,2.79%,0.708%,5.57%,-14.3%,-3.92%
CC(C)CCn1c(=O)c2ccccc2n2c(SCc3cccc(F)c3)nnc12,0.14%,2.96%,10.2%,-5.87%,7.99%
CC(C)NC(=O)C1CCCN1c1nc2ncccc2o1 (stereo not drawn),-3.77%,-6.46%,-1.3%,-5.89%,-6.5%
Cc1ccc(N2CCN(C(=O)Cn3c(=O)oc4cc(S(=O)(=O)N5CCCC5)ccc43)CC2C)cc1 (stereo not drawn),0.112%,3.67%,-1.29%,-3.51%,-6.16%
Cc1ccc2c(c1)c(-n1cccc1)c1n2CC(C)(C(=O)NCCC(C)C)N(Cc2cccnc2)C1=O (stereo not drawn),-12.2%,3.32%,-4.08%,-34.3%,-2.25%
